Reference: article PMC6919601, “Identification of Plasmodium dipeptidyl aminopeptidase allosteric inhibitors by high throughput screening” (PLoS ONE, 2019)
Among all 110,000 compounds or so, about 230 (0.21%) showed an effect of 50% or more. The list shows a part of the results.

biological target: DPAP1 (Plasmodium falciparum, UniProt Q8IIJ9); experiment: primary screen, percent inhibition; read by cleavage of a fluorogenic dipeptide substrate; higher = more effect of the substance; design: species or system P. falciparum D10 trophozoite lysates; single well
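Also: 30 min substrate incubation versus DMSO and 10 µM JCP410 controls.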

Sequence of DPAP1 (Q8IIJ9 whole entry, looked up): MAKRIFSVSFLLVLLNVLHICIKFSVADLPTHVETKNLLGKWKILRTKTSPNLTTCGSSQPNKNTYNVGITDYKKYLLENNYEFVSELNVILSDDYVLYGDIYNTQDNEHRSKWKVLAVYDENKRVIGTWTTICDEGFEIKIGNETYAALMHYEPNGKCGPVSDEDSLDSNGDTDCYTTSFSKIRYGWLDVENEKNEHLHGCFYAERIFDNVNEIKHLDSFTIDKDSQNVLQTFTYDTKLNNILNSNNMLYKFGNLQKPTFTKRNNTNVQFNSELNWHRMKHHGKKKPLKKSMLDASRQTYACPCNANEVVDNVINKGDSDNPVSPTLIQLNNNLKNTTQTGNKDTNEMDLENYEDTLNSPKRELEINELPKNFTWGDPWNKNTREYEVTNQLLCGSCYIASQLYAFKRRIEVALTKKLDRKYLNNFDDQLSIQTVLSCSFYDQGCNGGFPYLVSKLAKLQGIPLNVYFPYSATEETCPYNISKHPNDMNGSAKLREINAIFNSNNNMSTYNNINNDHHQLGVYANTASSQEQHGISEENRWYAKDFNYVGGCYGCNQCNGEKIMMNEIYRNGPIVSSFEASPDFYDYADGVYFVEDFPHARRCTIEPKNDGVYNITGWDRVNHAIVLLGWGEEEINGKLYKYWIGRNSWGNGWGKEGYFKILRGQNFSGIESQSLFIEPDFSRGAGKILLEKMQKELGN

Compound	% Inhibition @ 10 uM
Cc1ccc(F)cc1NC(=O)c1ccc2c(c1)OCO2	0.13%
Cc1ccc(C/N=C/C2=C(O)c3sccc3N(Cc3ccccc3)S2(=O)=O)cc1	1.23%
COCCCNc1nc2c(S(=O)(=O)c3ccc(C(C)C)cc3)nnn2c2ccccc12	-3.08%
CCOC(=O)C1CCN(Cc2c(F)cccc2Cl)CC1	-4.14%
CCCOc1cccc(C2c3c(oc4ccccc4c3=O)C(=O)N2c2nc(C)c(C(C)=O)s2)c1 (centres unmarked)	-2.92%
COc1cc(/C=C2\C(=N)N3N=C(N4CCCC4)SC3=NC2=O)ccc1O	1.72%
CC(=O)Nc1ccc(NC=C2C(=O)NC(=O)NC2=O)cc1	-3.9%
Cc1cc(C(=O)N2CCC(Cc3ccccc3)CC2)c2c(C)nn(-c3ccccc3)c2n1	2.12%
CC(C)NC(=O)c1ccccc1NC(=O)c1ccco1	0.161%
Cc1nn(CC(=O)NCCc2cccs2)c(=O)c2cccn12	-7.7%
CC1CCC(NC(=O)c2ccc(C/N=c3/c(N4CCC(C)CC4)c(O)c3=O)cc2)CC1 (centres unmarked)	2.76%
O=CN1CCN(CCCc2ccccc2)CC1	1.62%
O=C(O)CC(NC(=O)COc1ccc(Cl)cc1Cl)C(=O)O (centres unmarked)	7.24%
CC(C)c1ccccc1NC(=O)CCCC(=O)O	-2.77%
CC(=O)c1ccc(NC(=O)CCC2CCCC2)cc1	0.843%
Cc1ccc(S(=O)(=O)N(CC(=O)Nc2nc3ccccc3s2)C2CCCCC2)cc1	-4.84%
O=C(COc1ccc2c(=O)c(Oc3ccccc3Cl)coc2c1)NC1CCCCC1	-0.0626%
CCOC(=O)c1cccc(-c2ccc(/C=C3\C(=N)N4N=C(N5CCOCC5)SC4=NC3=O)o2)c1	-5.27%
CCOC(=O)c1c(C)nc2ccc(Cl)cn12	2%
CCCCNC(=O)c1nn2cc(Br)cnc2c1Br	0.215%
Cc1nc(NCCCn2ccnc2)c2ccccc2n1	-5.98%

Compound	% Inhibition @ 10 uM
O=C(O)CNc1nc2ccccc2s1	2.17%
COc1cccc(-n2c(SCC(=O)Nc3nnc(C)s3)nnc2-c2c[nH]c3ccccc23)c1	3.55%
Cc1cc(O)n(Cc2ccccc2)c(=O)c1C#N	2.44%
COc1cccc(NC(=O)c2cc(OC)c(OC)c(OC)c2Br)c1	1.1%
Cc1cc(C)nc(N2CC(=O)N=C2N)n1	0.628%
Cc1ccc2oc(=O)c3cnn(CC(=O)Nc4ncccc4C)c3c2c1	-0.0115%
COc1cc(/C=N/n2cnnc2-n2nc(C)cc2C)ccc1O	-1.24%
Cc1ccc(CNC(=O)CN2C(=O)C(c3ccccc3)Oc3cccnc32)cc1 (centres unmarked)	-0.677%
COc1nc(=N)c2cc3c(=N)nc(OC)c3cc12	-1.91%
CC(C)C[C@H](NC(=O)c1csc(-c2ccccc2N)n1)C(=O)NCC#N	-3.04%
CC1=C(C(=O)Nc2ccc(Cl)cc2)C(c2cccnc2)n2ncnc2N1 (centres unmarked)	0.528%
CCc1[nH]nc2c1C(c1ccc(OCc3ccccc3)cc1)C(C#N)=C(N)O2 (centres unmarked)	-3.63%
Cc1ccc(NC(=O)c2ccc(C(=O)Nc3ccc(C)cc3C)cc2)c(C)c1	-6.12%
COc1ccccc1[N+]1=C2CCCCN2C(O)(c2cccs2)C1 (centres unmarked)	0.0904%
CN1CCC(N(C)Cc2cccc([N+](=O)[O-])c2)CC1	-2.56%
Cc1cc2nc(C)c(Cc3ccccc3)c(O)n2n1	-3.96%
Cc1ccc(C)c(NC(=O)C2C(=O)NC3(C)CC2c2ccccc2O3)c1 (centres unmarked)	-0.756%
CCOC(=O)N1CCN(C(=O)COc2ccc(Cl)cc2C)CC1	2.43%
CCOC(=O)N1CCN(C(=O)Cn2cnc3c(nnn3Cc3ccccc3F)c2=O)CC1	-0.431%
Cc1ccc2cnn(CCCC(=O)NCc3ccc(F)cc3)c2c1	-2.88%
O=C(O)c1cc(S(=O)(=O)N2CCCC2)ccc1Br	2.46%

Compound	% Inhibition @ 10 uM
C=CCO/C(O)=C1/C(C)=Nc2ncnn2C1c1ccc(C)cc1 (centres unmarked)	0.0842%
CCOc1cc(C(=O)Nc2c(-c3cccs3)nc3ccccn23)cc(OCC)c1OCC	-2.74%
O=C1c2ccccc2C(=O)N1CC(=O)n1nc(-c2ccco2)nc1NCc1cccs1	-3.24%
CCc1ccc(CN(C(=O)c2cc(OC)c(OC)c(OC)c2)C2CCS(=O)(=O)C2)cc1 (centres unmarked)	0.413%
COc1ccc(CCNC(=O)CN(c2ccc(Cl)cc2)S(C)(=O)=O)cc1	4.11%
Cc1ccsc1CN1C[C@@H]2C[C@H](C1)c1cccc(=O)n1C2	-0.13%
Cn1cnc2nc3n(c2c1=O)CCC3	-4.21%
O=C(Cn1ncn2nc(-c3cccs3)cc2c1=O)NCCc1ccc(Cl)cc1	-1.08%
Cc1cc(C)c(S(=O)(=O)NCC(=O)NO)c(C)c1	1.24%
COc1ccccc1CNC(=O)c1ccc(CN2CCc3ccccc3C2)cc1	2.24%
COC(=O)c1sc(N2C(=O)c3oc4ccccc4c(=O)c3C2c2cccc(OC)c2)nc1C (centres unmarked)	-0.828%
O=C(c1ccc(NS(=O)(=O)c2cccc(Cl)c2)cc1)N1CCN(c2ccccc2)CC1	9.61%
CCOC(=O)c1c(NC(=O)/C=C/c2cccc([N+](=O)[O-])c2)sc2c1CCCC2	-2.42%
CCCOc1ccc(C(=O)N(Cc2ccc(C(C)C)cc2)C2CCS(=O)(=O)C2)cc1 (centres unmarked)	2.1%
O=C(c1ccc(S(=O)(=O)N2CCOCC2)cc1)N1CCN(C23CC4CC(CC(C4)C2)C3)CC1	5.38%
CC(C)(C)NC(=O)c1cnn(-c2cccc(Cl)c2)c1C1CCN(C(=O)OC(C)(C)C)CC1	14.4%
Cc1nc(O)c(-c2ccccc2)c(O)c1C(=O)c1ccccc1	2.11%
CCCCOc1cccc(CN2CCCCC2c2cccnc2)c1 (centres unmarked)	-6.69%
COc1ccc(N2CCn3c2nc2c3c(=O)n(C/C=C(/C)Cl)c(=O)n2C)cc1	-0.413%
O=c1c(Cl)c(NCc2ccc(F)cc2Cl)cnn1C12CC3CC(CC(C3)C1)C2	1.86%
